# Experimental data as given in PubChem BioAssay (Tox21).
# “And” between values parts separate entries of the source, which are not always exact repeats. Identical values can stand only once. Inconclusive results, whose numbers are uncertain, are shown with a selection of clear calls. For some of these results: Potencies of inconclusive entries are doubtful fits and often do not repeat. A structure can be active in one record and inactive in another. The source made the active and inactive calls. Unless noted, calls follow the shape of the dose curve; as a rule, active = well fitted curve in the direction sought with a large enough effect in the repeat runs; inconclusive = weak or mixed curves; inactive = no such curve, though single readings can be large; an effect the other way counts as inactive or inconclusive.
# How the values were obtained:
# [1] = qHTS assay for small molecules that induce genotoxicity in human embryonic kidney cells expressing luciferase-tagged ATAD5 - cell viability (AID 651634; calls by dose curve; also: nearly all actives have a fitted effect of over 25% in size; also: potency is read from the fitted curve at half-maximal effect); conditions: HEK293T ATAD5-luc cells viability, CellTiter-Fluor, 15.5 h; series mostly up to 83.3 µM
# How it was run: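 15.5 hr compound or vehicle exposure of HEK293T cells expressing luciferase-tagged ATAD5 at 37C; live-cell protease activity is read by fluorescence after 30 min of CellTiter-Fluor.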
# [2] = qHTS assay for identifying genotoxic compounds that show differential cytotoxicity against isogenic chicken DT40 cell lines with known DNA damage response pathways - Rev3 mutant cell line (AID 743014); conditions: chicken DT40 Rev3-/- viability, CellTiter-Glo, 40 h; activity, negative = cytotoxicity: at 68.4 µM (top of the series); also: nearly all actives have a fitted effect of over 55% in size; also: potency is read from the fitted curve at half-maximal effect
# [3] = qHTS assay to identify small molecule antagonists of the androgen receptor (AR) signaling pathway - cell viability counter screen (AID 743033; also: nearly all actives have a fitted effect of over 45% in size; also: potency is read from the fitted curve at half-maximal effect); conditions: AR-bla HEK293 viability, CellTiter-Glo luminescence, 16 h; activity change, negative = cytotoxicity: at 58.5 µM (top of the series)
# [4] = qHTS assay for small molecule disruptors of the mitochondrial membrane potential - cell viability (AID 720634; calls by dose curve; also: nearly all actives have a fitted effect of over 20% in size; also: potency is read from the fitted curve at half-maximal effect;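 as to activity change, negative = cytotoxicity: human HepG2 liver cancer cells; % is scaled to controls: 0 for no effect and ±100 for the full control effect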); conditions: HepG2 viability, ATP luminescence (CellTiter-Glo), 1 h; series mostly up to 83.2 µM
# How it was run: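 In this qHTS format, HepG2 cells plated overnight were pinned with compound, incubated 1 hr, and assayed for ATP luminescence with CellTiter-Glo after m-MPI dye addition.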
# [5] = qHTS assay for small molecule disruptors of the mitochondrial membrane potential (AID 720635); conditions: HepG2 mitochondrial membrane potential, Mito-MPS dye ratio; ratio activity, negative = MMP loss: at 83.2 µM (top of the series) unless noted; also: potency is read from the fitted curve at half-maximal effect; as to ratio activity, negative = MMP loss: % is scaled to controls: 0 for no effect and ±100 for the full control effect
# How it was run: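 HepG2 cells (2,000/well) attached overnight at 37C, then took compound for 1 hr at 37C, 5% CO2. Mito-MPS dye was added for 30 min; fluorescence was read at 490/535 nm (monomers) and 540/590 nm (aggregates).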
# [6] = qHTS assay for identifying genotoxic compounds that show differential cytotoxicity against isogenic chicken DT40 cell lines with known DNA damage response pathways - wild type cell line (AID 743012); conditions: DT40 wild type chicken cells viability, CellTiter-Glo, 40 h; activity change, negative = cytotoxicity: at 68.4 µM (top of the series) unless noted; also: nearly all actives have a fitted effect of over 60% in size; also: potency is read from the fitted curve at half-maximal effect; as to activity change, negative = cytotoxicity: % is scaled to controls: 0 for no effect and ±100 for the full control effect
# How it was run: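 Endpoint: CellTiter-Glo luminescence, 30 min RT. Cells: wild type DT40, 300/well. Exposure: compounds in DMSO, 40 h, 37 C/5% CO2, after ~0.5 h pre-incubation.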
# [7] = qHTS assay for identifying genotoxic compounds that show differential cytotoxicity against isogenic chicken DT40 cell lines with known DNA damage response pathways - Rad54/Ku70 mutant cell line (AID 743015); conditions: DT40 Rad54/Ku70 mutant viability, CellTiter-Glo, 40 h; activity change, negative = cytotoxicity: at 66.8 µM (top of the series); also: potency is read from the fitted curve at half-maximal effect; nearly all actives have a fitted effect of over 60% in size
# [8] = molecular target: Glucocorticoid receptor (Homo sapiens) (UniProt P04150); test: qHTS assay to identify small molecule antagonists of the glucocorticoid receptor (GR) signaling pathway (AID 720692; active = well fitted inhibition curve with a large enough effect in the signal ratio in the repeat runs, not every such curve was filed as active; inconclusive = weak or mixed curves, or effect the other way; inactive = no such curve, though single readings can be large or run the other way; the % refers to the signal ratio; also: potency is read from the fitted curve at half-maximal effect); conditions: GR-bla HeLa, beta-lactamase FRET ratio, dexamethasone-stimulated, 18 h; activity change, negative = inhibition: at 58.5 µM (top of the series) unless noted
# UniProt P04150, sequence (P04150 whole entry, looked up): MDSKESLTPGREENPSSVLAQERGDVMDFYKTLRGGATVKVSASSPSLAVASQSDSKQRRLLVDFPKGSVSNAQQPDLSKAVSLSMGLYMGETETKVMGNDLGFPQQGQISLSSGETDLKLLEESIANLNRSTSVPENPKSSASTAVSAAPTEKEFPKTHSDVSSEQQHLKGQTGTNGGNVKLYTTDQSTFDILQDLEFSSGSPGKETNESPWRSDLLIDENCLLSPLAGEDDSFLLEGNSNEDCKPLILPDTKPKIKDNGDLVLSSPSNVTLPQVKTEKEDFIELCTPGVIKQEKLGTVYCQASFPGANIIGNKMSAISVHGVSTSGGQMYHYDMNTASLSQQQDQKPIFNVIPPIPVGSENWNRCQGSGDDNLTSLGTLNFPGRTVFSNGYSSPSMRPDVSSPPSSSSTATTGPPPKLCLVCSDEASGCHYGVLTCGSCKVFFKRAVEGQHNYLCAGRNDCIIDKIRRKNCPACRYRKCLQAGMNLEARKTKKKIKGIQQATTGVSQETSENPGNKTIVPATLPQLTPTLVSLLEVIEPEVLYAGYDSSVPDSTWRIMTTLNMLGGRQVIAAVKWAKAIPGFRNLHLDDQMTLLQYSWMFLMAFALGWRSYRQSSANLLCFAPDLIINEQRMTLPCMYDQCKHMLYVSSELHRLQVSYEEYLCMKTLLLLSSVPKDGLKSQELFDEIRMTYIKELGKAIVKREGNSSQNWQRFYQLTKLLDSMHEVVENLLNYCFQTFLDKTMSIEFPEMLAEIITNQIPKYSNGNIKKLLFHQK
# How it was run: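 Tox21 10K library screened in concentration-response for blockade of dexamethasone (5 nM final)-induced GRE-bla reporter activity in HeLa cells; 18 h treatment, fluorescence read.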
# [9] = qHTS assay to identify small molecule antagonists of the glucocorticoid receptor (GR) signaling pathway - cell viability counter screen (AID 720693); conditions: GR-bla HeLa viability, CellTiter-Glo luminescence, 18 h, with 5 nM dexamethasone present; viability change, negative = cytotoxic: at 58.5 µM (top of the series) unless noted; also: potency is read from the fitted curve at half-maximal effect; nearly all actives have a fitted effect of over 55% in size
# [10] = molecular target: Glucocorticoid receptor (Homo sapiens) (UniProt P04150); test: qHTS assay to identify small molecule agonists of the glucocorticoid receptor (GR) signaling pathway (AID 720691; active = well fitted activation curve with a large enough effect in the signal ratio in the repeat runs, not every such curve was filed as active; inconclusive = weak or mixed curves, or effect the other way; inactive = no such curve, though single readings can be large or run the other way; the % refers to the signal ratio; also: potency is read from the fitted curve at half-maximal effect); conditions: GR-bla HeLa, beta-lactamase reporter ratio, 18 h; activation: at 62.4 µM (top of the series) unless noted
# How it was run: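 Measures GR pathway activation through a GRE-beta-lactamase reporter stably integrated in HeLa cells, with 18 h compound treatment at 37 C and fluorescence detection using a FRET substrate.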
# [11] = qHTS assay to test for compound auto fluorescence at 460 nm (blue) in HEK293 cells (AID 720678); conditions: blue autofluorescence 405/460 nm; series mostly up to 91.3 µM; also: % is scaled to controls: 0 for no effect and ±100 for the full control effect
# How it was run: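 HEK293 cells (2,000/well, medium with 10% dialyzed FBS) attached 4-5 hr, then exposed to compound overnight at 37C, 5% CO2. Blue fluorescence read at 405/460 nm, with triamterene as reference fluorophore.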
# Tags tell the direction and shape of the fitted curve or compound fluorescence and quenching.
smiles,measurement,setting,value
[Cl-].[Cl-].[Hg+2],Potency,[1],active: 5.31 µM and active: 30.5 µM and active: 61.1 µM
same,Potency,[2],active: 2.66 µM and active: 1.92 µM and active: 386 nM
same,Potency,[3],active: 9.52 µM and active: 1.54 µM and active: 9.77 µM
CCCCC/C=C\C/C=C\C/C=C\C/C=C\CCCC(=O)NCC(=O)O,"activity change, negative = cytotoxicity",[4],inactive: -7.39% [at 8.08 µM]
same,"ratio activity, negative = MMP loss",[5],inconclusive: 4.4% [at 8.08 µM]
same,"activity change, negative = cytotoxicity",[6],inactive: 16.5% [at 8.52 µM]
same,Potency,[2],"inconclusive: 1.88 µM [rising, partial curve, poor fit]"
same,Potency,[3],"inconclusive: 0.0425 µM [rising, full curve, poor fit]"
NNC(=S)NN,Potency,[1],inactive
same,Potency,[6],"inconclusive: 70.5 µM [cytotoxic, single point]"
same,Potency,[2],"inconclusive: 70.5 µM [cytotoxic, single point] and active: 54.5 µM"
same,Potency,[3],"inconclusive: 56.5 µM [cytotoxic, single point]"
Sc1ccccc1,Potency,[4],inactive
same,"ratio activity, negative = MMP loss",[5],inconclusive: 15.7% [at 95.3 µM]
same,Potency,[2],"inconclusive: 69.6 µM [cytotoxic, single point] and inconclusive: 61.1 µM [cytotoxic, single point]"
same,Potency,[7],"inconclusive: 78.1 µM [cytotoxic, single point] and inconclusive: 68.6 µM [cytotoxic, single point]"
O=[N+]([O-])c1c(Cl)c(Cl)c(Cl)c(Cl)c1Cl,Potency,[4],"inconclusive: 34.4 µM [cytotoxic, partial curve, poor fit]"
same,Potency,[5],"inconclusive: 27.2 µM [activator, partial curve] and inconclusive: 24.3 µM [activator, partial curve]"
same,Potency,[8],"inconclusive: 21.8 µM [inhibitor, partial curve] and active: 30.9 µM"
same,Potency,[9],"inconclusive: 49 µM [cytotoxic, partial curve]"
same,Potency,[6],"inconclusive: 0.153 µM [rising, full curve, poor fit]"
same,Potency,[2],"inconclusive: 27.3 µM [cytotoxic, partial curve]"
same,Potency,[3],inactive
CC(C)(C)c1cc(O)ccc1O,Potency,[1],inactive
same,Potency,[10],inactive
same,Potency,[6],"inconclusive: 29.8 µM [cytotoxic, single point] and inconclusive: 68.6 µM [cytotoxic, single point]"
same,Potency,[3],active: 26.8 µM
O=C(O)COc1ccc(Cl)cc1,Potency,[4],inactive
same,"ratio activity, negative = MMP loss",[5],inconclusive: -5.33%
CCCN(CCC)c1c([N+](=O)[O-])cc(S(N)(=O)=O)cc1[N+](=O)[O-],Potency,[4],active: 32.7 µM
same,Potency,[5],active: 3.67 µM
same,Potency,[10],"inconclusive: 23.3 µM [cytotoxic, full curve]"
same,Potency,[8],inconclusive: 58.6 µM [cytotoxic]
same,Potency,[9],active: 58.6 µM
same,Potency,[3],active: 20.8 µM
CCOC(=O)C(C)OC(=O)c1cc(Oc2ccc(C(F)(F)F)cc2Cl)ccc1[N+](=O)[O-] (configuration not stated),Potency,[4],"inconclusive: 21.6 µM [cytotoxic, partial curve, poor fit] and inconclusive: 54.5 µM [cytotoxic, partial curve, poor fit]"
same,Potency,[5],active: 21.6 µM and active: 61.1 µM
same,Potency,[11],inactive
same,Potency,[8],inactive
same,Potency,[6],"inconclusive: 1.53 µM [rising, full curve]"
same,Potency,[2],"inconclusive: 10.8 µM [cytotoxic, partial curve, poor fit]"
same,Potency,[7],"inconclusive: 24.2 µM [cytotoxic, full curve]"
C=CC1(C)OC(=O)N(c2cc(Cl)cc(Cl)c2)C1=O (configuration not stated),Potency,[4],"inconclusive: 68.6 µM [cytotoxic, partial curve, poor fit]"
same,Potency,[5],active: 54.5 µM
same,"ratio activity, negative = MMP loss",[5],inconclusive: -19.2%
same,Potency,[6],"inconclusive: 68.2 µM [cytotoxic, single point]"
same,Potency,[2],"inconclusive: 68.2 µM [cytotoxic, single point] and inconclusive: 68.6 µM [cytotoxic, single point]"
same,Potency,[3],inconclusive: 54.6 µM [cytotoxic]
Nc1c(Cl)c(Cl)nc(C(=O)O)c1Cl,Potency,[4],"inconclusive: 70.7 µM [cytotoxic, single point]"
same,Potency,[5],inactive and active: 56.1 µM
same,Potency,[6],"inconclusive: 30.6 µM [rising, single point]"
same,Potency,[2],inactive
